According to patent publication EP4799608A2 (Regeneron Pharmaceuticals, Inc., dated 2026):

Target: T1, human VEGF165 (human, UniProt P15692-4 27-191)
T1 construct: This is the VEGF found in the aflibercept:VEGF complex measured in participants' plasma, and in the VEGF:aflibercept ELISA calibration standards; also called endogenous VEGF
T1 sequence (looked up): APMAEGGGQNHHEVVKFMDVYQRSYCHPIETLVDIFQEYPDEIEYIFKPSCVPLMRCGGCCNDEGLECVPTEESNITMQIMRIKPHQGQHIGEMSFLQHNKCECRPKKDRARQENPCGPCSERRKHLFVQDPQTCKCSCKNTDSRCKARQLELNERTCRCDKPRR
Assay: validated ELISA for bound aflibercept (VEGF:aflibercept complex) in plasma of trial participants, calibrated with VEGF:aflibercept standards

binding result: binds
B1: aflibercept (Fc fusion)
chain: SDTGRPFVEMYSEIPEIIHMTEGRELVIPCRVTSPNITVTLKKFPLDTLIPDGKRIIWDSRKGFIISNATYKEIGLLTCEATVNGHLYKTNYLTHRQTNTIIDVVLSPSHGIELSVGEKLVLNCTARTELNVGIDFNWEYPSSKHQHKKLVNRDLKTQSGSEMKKFLSTLTIDGVTRSDQGLYTCAASSGLMTKKNSTFVRVHEK[left out - human IgG1 Fc]
notes: Homodimer of two fusion polypeptides; also called VEGF Trap; VEGF-Trap
